From PMC4336329 (PLoS ONE, 2015)
Hit rate of the full screen: of about 310,000 compounds, about 2,200 (0.71%) showed an effect of 50% or more. The effect is printed as a negative number. Some of the results follow.

target: human ether-à-go-go-related gene (hERG) potassium channel (human, UniProt Q12809); test: primary screen, population patch clamp on CHO cells stably expressing hERG
Sequence (Q12809 whole entry, looked up): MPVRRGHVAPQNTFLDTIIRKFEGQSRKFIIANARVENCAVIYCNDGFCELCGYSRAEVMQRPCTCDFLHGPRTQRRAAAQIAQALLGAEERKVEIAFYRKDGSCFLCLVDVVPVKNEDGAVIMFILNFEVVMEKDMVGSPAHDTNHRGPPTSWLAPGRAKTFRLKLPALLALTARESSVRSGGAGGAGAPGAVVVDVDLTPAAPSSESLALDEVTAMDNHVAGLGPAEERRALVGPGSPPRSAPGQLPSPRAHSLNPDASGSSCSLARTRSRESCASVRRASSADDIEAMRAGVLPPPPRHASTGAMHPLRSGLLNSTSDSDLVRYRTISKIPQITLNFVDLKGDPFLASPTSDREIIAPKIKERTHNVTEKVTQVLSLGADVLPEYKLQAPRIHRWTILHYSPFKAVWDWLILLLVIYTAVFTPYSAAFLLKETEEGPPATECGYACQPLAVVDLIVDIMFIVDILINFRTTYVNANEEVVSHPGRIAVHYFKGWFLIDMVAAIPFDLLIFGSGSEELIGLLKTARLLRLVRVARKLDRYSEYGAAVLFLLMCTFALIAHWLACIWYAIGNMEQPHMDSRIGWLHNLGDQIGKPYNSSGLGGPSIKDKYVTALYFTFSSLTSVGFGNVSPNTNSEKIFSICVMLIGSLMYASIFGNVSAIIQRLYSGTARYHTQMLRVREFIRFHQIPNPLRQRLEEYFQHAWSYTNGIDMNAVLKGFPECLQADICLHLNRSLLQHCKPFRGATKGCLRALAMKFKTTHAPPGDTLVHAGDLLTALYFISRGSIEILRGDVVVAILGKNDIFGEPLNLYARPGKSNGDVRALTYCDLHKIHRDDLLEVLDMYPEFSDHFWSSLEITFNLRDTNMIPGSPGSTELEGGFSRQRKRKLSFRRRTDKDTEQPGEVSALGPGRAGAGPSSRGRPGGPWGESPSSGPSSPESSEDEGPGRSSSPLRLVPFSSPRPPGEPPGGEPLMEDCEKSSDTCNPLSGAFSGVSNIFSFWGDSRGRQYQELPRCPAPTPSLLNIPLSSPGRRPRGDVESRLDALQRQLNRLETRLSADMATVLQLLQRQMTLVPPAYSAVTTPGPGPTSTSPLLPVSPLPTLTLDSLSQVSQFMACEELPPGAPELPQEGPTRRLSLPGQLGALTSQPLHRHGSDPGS

Structure (SMILES)	hERG current change (%, negative = inhibition) at 1uM
CCCCC(O)(c1ccc(CC)cc1)C(CN1CCOCC1)c1ccccc1.Cl (stereo not shown)	8.88%
CCC(=O)NNC(=O)CCC(=O)Nc1cccc(Cl)c1C	12.4%
Cc1ccc(C)c(NC(=O)C2CCCN2S(=O)(=O)c2ccc3c(c2)n(C)c(=O)c(=O)n3C)c1 (stereo not shown)	-3.19%
CC12CCC(C(=O)NC3CCCCC3)([C@H](Br)C1=O)C2(C)C (stereo partly shown)	9.98%
Cc1ccccc1C(=O)O/N=C(\N)c1cccc([N+](=O)[O-])c1	0.696%
O=C(C1CCCN(c2nnc(-n3cccc3)s2)C1)N1CCN(c2ccccc2)CC1 (stereo not shown)	8.86%
O=C(CCn1c(=O)sc2ccccc21)NCc1ccc2c(c1)OCO2	22.1%
CCN(CC(=O)NCc1cccs1)C(=O)c1ccc(S(=O)(=O)Nc2ccccc2C)cc1	15.8%
CC(=O)CCN1CCOCC1	11.4%
CCc1nn2c(=O)c(S(=O)(=O)Nc3cccc(F)c3)c(C)nc2s1	10.4%
CCCn1nc(NS(=O)(=O)c2cccc3nonc23)c2cc3ccccc3nc21	13.5%
CCCCNC(=O)Nc1nc(SCC(=O)OCC)n[nH]1	8.92%
COc1ccccc1/C=C1\SC(=S)N(CC(=O)Nc2nnc(C)s2)C1=O	12.7%
CN1CCN(C(=O)c2cc(Oc3c(F)c(F)c(F)c(F)c3F)cc(C(=O)N3CCN(C)CC3)c2)CC1	17%
COc1ccc(CNC(=O)C(NS(=O)(=O)c2ccc3c(c2)CCCN3C(C)=O)C(C)C)cc1 (stereo not shown)	-4.53%
Cc1oc(-c2ccc(F)cc2F)nc1CN1C[C@@H]2C[C@@H](C1)c1cccc(=O)n1C2	-21.2%
CCc1ccc(S(=O)(=O)NCc2ccc(N3CCN(C)CC3)cc2)cc1	9.16%
O=C(CSc1nnc2scc(-c3ccccc3)n12)NCc1ccc2c(c1)OCO2	3.88%
Cc1cc(OCC(=O)NCCCN2CCCC2=O)c2c(C)c(C)c(=O)oc2c1	-4.41%
CC(C)(C)c1csc(NC(=O)c2ccc(Br)o2)n1	7.46%
COc1ccccc1CNC(=O)c1cccc(-c2ccc(C)c3ccccc23)n1	15.6%
Cc1cc2c(C)nc3ccccc3c2o1	11.9%

Structure (SMILES)	hERG current change (%, negative = inhibition) at 1uM
Cc1cc(C)c(NC(=O)CN2C(=O)NC3(CCCCC3)C2=O)c(Cl)c1	0.0119%
CCOc1ccccc1C1CC(c2ccccc2)Nc2nc(N)nn21.Cl (stereo not shown)	-2.71%
CCOCC(=O)Nc1nnc(COCC)s1	7.17%
CCCC1C(C#N)=C(N)Oc2c1c(=O)oc1ccccc21 (stereo not shown)	9.9%
CS(=O)(=O)Nc1cccc(C(=O)OCCCOc2ccc(F)cc2)c1	1.44%
COc1ccc(-c2nnn(CC(=O)N(CCCN3CCOCC3)C(C(=O)NC3CCCC3)c3ccc(C)o3)n2)cc1 (stereo not shown)	8.35%
N=C1c2ccccc2CN1NC(=O)c1ccc(Br)o1	15.5%
O=C(CCl)Nc1cn(-c2ccccc2)nc1-c1ccccc1	-0.41%
CCc1cc2c(=O)c(-c3nc4ccccc4n3C)coc2c(CN2CCCC(C)C2)c1O (stereo not shown)	10.6%
CCCN1C/C(=C/c2ccc3c(c2)OCO3)C(=O)/C(=C/c2ccc3c(c2)OCO3)C1	5.93%
Brc1ccc(Oc2ncc(CN3CCN(c4ccccc4)CC3)s2)cc1	11.1%
Cc1ccccc1NC(=O)C1CCCN(S(=O)(=O)c2cccc3cccnc23)C1 (stereo not shown)	3.89%
O=C(c1cc(S(=O)(=O)N2CCOCC2)ccc1Cl)N1CCC(Cc2ccccc2)CC1	3.01%
O=C(CN1CCN(c2ncc(C(F)(F)F)cc2Cl)CC1)NC(=O)NCc1ccccc1	10.7%
COc1ccc(-c2nnc(-c3ccc(C)cc3)o2)cc1	12.9%
O=C(O)CCC(=O)Nc1ccc(S(=O)(=O)c2ccc(NC(=O)CCC(=O)O)cc2)cc1	6.9%
COc1ccc(C(=O)NCc2ccco2)cc1S(=O)(=O)NC1CC1	-3.11%
CCC(=O)N1CCN(c2ccc(NC(=O)c3ccc(C#N)cc3F)cc2Cl)CC1	3.09%
CCCn1c(SCc2ccccc2)nc2c1c(=O)[nH]c(=O)n2C	3.44%
CCOC(=O)c1c[nH]n2c(=O)cc(C)nc12	13.5%
C[C@H](NC(=O)c1nc[nH]c1C(=O)N[C@@H](CCCCNC(=O)OC(C)(C)C)C(=O)OC(C)(C)C)C(=O)OC(C)(C)C	3.21%
COc1ccc(-c2oc(/N=C/N3CCOCC3)c(C#N)c2-c2ccc(OC)cc2)cc1	15.4%

Structure (SMILES)	hERG current change (%, negative = inhibition) at 1uM
CCOc1ccc(CNC(=O)Cn2nc(C)n3nc(-c4ccccc4)cc3c2=O)cc1	0.874%
COc1ccc(C(=O)N=c2sc3c(C)ccc(OC)c3n2C)cc1OC	6.8%
Cc1ccc(-c2nnc3c(C(F)(F)F)nc4ccccc4n23)cc1	8.9%
O=C(c1ccccc1NS(=O)(=O)c1ccc(F)cc1)N1CCc2ccccc21	12.2%
CCN(CC(=O)NC(C)(C)C)Cc1nc2c(Br)cc(Br)cc2c(=O)[nH]1	15%
COc1cc(CNC(=O)CCCCCCC(C)C)ccc1O	2.39%
Cc1cc(Br)c(NC(=O)c2c(-c3c(Cl)cccc3Cl)noc2C)c(Br)c1	10.8%
CCOc1ccc(N(CC(=O)Nc2cccc(C)c2)S(C)(=O)=O)cc1	10.2%
CN(C)c1ccc(N2C(=O)CC(Nc3ccc(N4CCOCC4)cc3)C2=O)cc1 (stereo not shown)	0.153%
Cl.OCCNCCNCc1ccc(-c2ccccc2)cc1	13.1%
O=C(COC(=O)CN1C(=O)NC2(CCCC2)C1=O)Nc1ccc(C(F)(F)F)cc1[N+](=O)[O-]	4.09%
N#Cc1ccccc1COC(=O)CCC(=O)c1cccs1	5.96%
CN(C)c1nc(C(=O)OCCO)nc(N(C)C)n1	4.11%
COc1ccc(C)cc1NC(=O)Nc1cnccn1	4.47%
NC(=O)c1cc2ccccc2o/c1=N\NC(=O)c1ccccc1O	6.97%
O=c1cc(NCCCO)c2ccccc2o1	7.93%
CCN(CC)c1ccc(/C=N/NC(=O)c2ccco2)c(O)c1	9.17%
CCC(=O)Oc1ccc(C(=O)Nc2c[nH]c(=O)[nH]c2=O)cc1	17%
COC(=O)c1cc2oc3ccccc3c2n1CC(=O)N1CCCc2ccccc21	15%
O=S(=O)(c1cnc[nH]1)N1CCN(c2ccc(F)cc2)CC1	2.41%
CCn1c2ccccc2c2cc(/C=N/NC(=O)c3cccc(C)c3)ccc21	11.5%
C(=N\NCc1ccccc1)/c1ccc2ncccc2c1	11.2%

Structure (SMILES)	hERG current change (%, negative = inhibition) at 1uM
CCN=C1SC(CC(=O)NCCc2ccc(OC)c(OC)c2)C(=O)N1CC (stereo not shown)	9.27%
Cc1ccccc1-n1cc(-c2ccc(Br)cc2)nc1SCC(N)=O	10.3%
Cc1cccc(OCCC(=O)Nc2c(C)n(C)n(-c3ccccc3)c2=O)c1	10.8%
Cc1ccc(CN2CCN(Cc3ccccc3C(F)(F)F)CC2)cc1.O=C(O)C(=O)O	13.5%
CCC1CCCCN1Cc1nc2ccccc2c(=O)n1CC(C)=O (stereo not shown)	6.14%
COc1ccc(N(CC(=O)N/N=C/c2cccc(OC)c2OC)S(=O)(=O)c2ccccc2)cc1	12.7%
CC(C)CC(NS(=O)(=O)c1ccccc1S(=O)(=O)NC(CC(C)C)C(=O)O)C(=O)O (stereo not shown)	10.8%
Cn1cnc(S(=O)(=O)N2CCN(C(c3ccccc3)c3ccccc3)CC2)c1	9.56%
O=C(c1cnn2c(C(F)(F)F)cc(-c3ccccc3)nc12)N1CCC2(CC1)OCCO2	2.64%
O=C(NCc1ccco1)c1ccc2c(c1)CCO2	13.8%
O=C(CC1(O)C(=O)N(Cc2ccccc2)c2ccccc21)c1ccc2c(c1)OCO2 (stereo not shown)	15.5%
O=C1NC(=O)C(c2ccccc2)(c2ccccc2)N1	11.5%
Cc1ccc(C)c(NC(=O)Cc2nc(CNCC(C)C)cs2)c1	9.18%
COc1ccc(NC(=O)c2ccccc2SC)cc1	16.3%
CCOc1ccc(OCCCCn2ccnc2)cc1	-1.71%
C=CCOc1cccc(CNc2cccc(C(=O)O)c2)c1	25.5%
Cc1cc2nc(C(F)(F)F)[nH]c(=O)n2n1	14.6%
CCOc1ccc(CNc2ncc(-c3ccccc3)n2C)cc1	-3.02%
CC(=O)Nc1ccc(N2CCOCC2)c([N+](=O)[O-])c1	3.53%
CCCNC(=O)N1[C@H]2CC[C@@H]1C(C(=O)OC)=C(c1cc3ccccc3o1)C2	10.6%
CSCCC(NS(=O)(=O)c1ccc2c(c1)oc(=O)n2C)C(=O)NC1CCCCC1 (stereo not shown)	13%
Cc1onc(-c2ccccc2)c1C(=O)Nc1ccc(Cl)c(S(=O)(=O)N2CCOCC2)c1	4.31%
